Among all 390,000 compounds or so, about 150 (0.038%) were called active. The inconclusive results got no clear call from the source; some entries with a clear call stand among them for comparison. Calls come from the whole dose curve; as a rule, active = well fitted inhibition curve with a large enough effect; inconclusive = small, poorly fitted or top-dose-only effect; inactive = no such curve, though single readings can be large or run the other way. Potencies of inconclusive entries are doubtful fits and often do not repeat.
target: Regulator of G-protein signaling 4 (Homo sapiens) (UniProt P49798); assay: Inhibitors of Regulator of G Protein Signaling (RGS) 4: qHTS; conditions: Transcreener GDP fluorescence polarization, RGS4-accelerated GTP hydrolysis; series mostly up to 114 µM; note: nearly all actives have a fitted effect of over 75% in size
Chain of UniProt P49798 (P49798 whole entry, looked up): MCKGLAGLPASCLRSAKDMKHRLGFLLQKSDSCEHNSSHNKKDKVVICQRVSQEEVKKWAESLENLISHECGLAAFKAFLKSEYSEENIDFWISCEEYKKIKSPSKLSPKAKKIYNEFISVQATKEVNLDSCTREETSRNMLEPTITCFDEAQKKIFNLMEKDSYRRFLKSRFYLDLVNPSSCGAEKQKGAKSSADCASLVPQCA
Outline: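 MLSMR compounds (23 nl, pin-transferred) preincubated 10 min at room temperature with a 500nM (2x) first reagent, then RGS4 at 900nM (2x) plus Transcreener GDP mix added; fluorescence polarization (620/688 nm) read before and after 90 min at 30 °C.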
Potency is the fitted concentration of half-maximal effect; tags give direction and shape of the fitted curve.

| SMILES | Potency |
| --- | --- |
| Nc1[nH]ncc1-c1ccc(Cl)cc1 | inconclusive: 79.4 µM [inhibitor, partial curve, poor fit] |
| O=C(COC(=O)c1cc2ccccc2oc1=O)Nc1cccc(S(=O)(=O)N2CCCCCC2)c1 | inactive |
| O=C1SC(c2ccccc2)=C/C1=C\N1CCCCC1 | inconclusive: 50.1 µM [inhibitor, partial curve, poor fit] |
| Cc1ccc(N2C(=O)[C@@H]3[C@H](C2=O)[C@H]2C=CC=NN2[C@@H]3C(=O)Nc2ccccc2)cc1 | inconclusive: 89.1 µM [inhibitor, partial curve, poor fit] |
| CCCOc1ccc(C(=O)CCN2CCN(C(=O)OCC)CC2)cc1 | inconclusive: 11.2 µM [inhibitor, full curve, poor fit] |
| O=C(O)CC(C(=O)O)N1C(=O)/C(=C/C=C/c2ccco2)SC1=S (stereo not given) | inconclusive: 31.6 µM [inhibitor, full curve, poor fit] |
| O=C(CC1C(=O)NCCN1CC1CCCCC1)NCc1cccc(F)c1F (stereo not given) | inactive |
| CCN(C(=O)CSc1nc2ccccc2n1CC(=O)NCc1ccc(OC)cc1)c1ccccc1 | inactive |
| CSc1nsc(SC)c1NC(=O)Nc1ccccc1C | inconclusive: 100 µM [inhibitor, single point] |
| Cc1cccc(NC(=O)CNC(=O)COc2cc(F)ccc2[N+](=O)[O-])c1C | inconclusive: 20 µM [inhibitor, full curve, poor fit] |
| O=C1/C(=C/c2ccccc2F)SC(=S)N1CCC(=O)N1CCCCC1CCO (stereo not given) | inactive |
| COc1ccc(/C=C(/C#N)c2nc(-c3ccc(-c4ccccc4)cc3)cs2)cc1OC | inactive |
| O=C1C(Cl)=C(Nc2cccc(O)c2)C(=O)N1Cc1ccccc1 | inconclusive: 50.1 µM [inhibitor, partial curve, poor fit] |
| COc1ccc(OCCn2c(C)nc3cc(C)c(C)cc32)cc1 | inactive |
| COc1ccc(/C=C(/C(=O)c2cccs2)N2C=CC=CC2=C(C#N)C#N)cc1 | inconclusive: 12.6 µM [inhibitor, full curve, poor fit] |
| COc1ccc2[nH]c(=O)c(CN(CC3CCCO3)C(=O)Nc3ccccc3OC)cc2c1 (stereo not given) | inactive |
| Cc1cc2nc(/C=C/c3nc4cc(C)c(C)cc4[nH]3)[nH]c2cc1C | inactive |
| COCc1nnc(NC(=O)C2CC(=O)N(c3ccc(C)c(Cl)c3)C2)s1 (stereo not given) | inactive |
| CCOc1ccc(/C(O)=C2\C(=O)C(=O)N(c3ccc(OC)cc3)C2c2ccccc2[N+](=O)[O-])cc1 (stereo not given) | inconclusive: 50.1 µM [inhibitor, partial curve, poor fit] |
| O=C(Nc1ccc(F)cc1)c1cccn1-c1nnc(N2CCCCC2)s1 | inactive |
| COc1ccc(OC)c(N)c1 | inconclusive: 17.8 µM [inhibitor, full curve, poor fit] |
| Cc1cn(CCC(=O)Nc2ccc(N3CCOCC3)cc2)c2ccccc12 | inactive |
| COc1cccc(C(=O)Oc2ccc(/C=N/Nc3ccc(C(=O)O)cc3)cc2OC)c1 | inconclusive: 100 µM [inhibitor, single point] |

| SMILES | Potency |
| --- | --- |
| CCOC(=O)c1c(C)[nH]c(C)c1C(=O)COC(=O)c1ccc(OC)cc1 | inconclusive: 89.1 µM [inhibitor, single point] |
| O=C(Cn1ccc(C(F)(F)F)n1)N/N=C/c1ccc(N2CCOCC2)cc1 | inconclusive: 31.6 µM [inhibitor, full curve, poor fit] |
| COc1ccc(/C=C2\Sc3ccc(C(=O)N4CCCC4)cc3N(C)C2=O)cc1OC | inactive |
| CN1CCN(NS(=O)(=O)c2ccc(Cl)cc2)CC1 | inactive |
| Cc1cc(=O)[nH]c(/N=C(\N)Nc2cccc3ccccc23)n1 | inconclusive: 89.1 µM [inhibitor, single point] |
| CC(=O)/C=C1/C(=O)Nc2ccccc21 | inconclusive: 31.6 µM [inhibitor, full curve, poor fit] |
| CCN(Cc1ccccc1)Cc1c(O)ccc2c(=O)c(-c3ccccc3OC)c(C(F)(F)F)oc12 | inactive |
| COc1ccc(Oc2cc(F)nc(N)n2)cc1 | inactive |
| O=C(COC(=O)c1ccc(Cl)c(S(=O)(=O)N2CCN(c3ccc(F)cc3)CC2)c1)Nc1cccc(Cl)c1 | inactive |
| CCCN(CC(=O)Nc1ccccc1C)C(=O)COc1c(Cl)cccc1Cl | inconclusive: 89.1 µM [inhibitor, single point] |
| Nc1c(C(=O)N2CCCCC2)sc(=S)n1-c1ccccc1 | inconclusive: 70.8 µM [inhibitor, partial curve, poor fit] |
| CCCCc1cc(=O)oc2cc(OC3CCCCC3=O)ccc12 (stereo not given) | inconclusive: 100 µM [inhibitor, single point] |
| Cc1ccc(-c2nc3ccc(Cl)cn3c2Nc2ccc3c(c2)OCCO3)o1 | inconclusive: 56.2 µM [inhibitor, partial curve, poor fit] |
| COc1ccc(-c2nc(CS(=O)CC(=O)NCc3ccc(F)cc3)c(C)o2)cc1OC (stereo not given) | inactive |
| CCC1(c2ccccc2)NC(=S)N(c2ccc(C)cc2)N1 (stereo not given) | inconclusive: 89.1 µM [inhibitor, partial curve, poor fit] |
| Cc1ccc(Nc2nnns2)cc1C | inconclusive: 50.1 µM [inhibitor, partial curve, poor fit] |
| Nc1nc(SCC(=O)c2ccc(Oc3ccccc3)cc2)n[nH]1 | inconclusive: 50.1 µM [inhibitor, single point] |
| Cc1ccccc1NC(=O)c1c(NC(=O)C(C)Oc2cccc(Cl)c2)sc2c1CCCC2 (stereo not given) | inconclusive: 79.4 µM [inhibitor, partial curve, poor fit] |
| Cc1ccc(C(Nc2ccccn2)c2ccc3cccnc3c2O)cc1 (stereo not given) | inconclusive: 44.7 µM [inhibitor, partial curve, poor fit] |
| CCCCCCC(=O)OC1CC(C)(C)NC(C)(C)C1 | inactive |
| CCOC(=O)n1c(=O)n(Cc2cccc(C)c2)c2ccccc21 | inconclusive: 17.8 µM [inhibitor, full curve, poor fit] |
| CC(NC(=S)NC1CCCCC1)c1ccc(C(C)(C)C)cc1 (stereo not given) | inactive |

Source: PubChem BioAssay AID504845 (National Center for Advancing Translational Sciences (NCATS), 2011)
